# ChEMBL document CHEMBL5606460, “ASAP - DENV-2 NS2B-NS3 protease fluorescence single point” (2024)
# About 110 (5.5%) of roughly 2,000 compounds showed an effect of 50% or more. The list shows a part of the results.
# Target: Genome polyprotein (dengue virus type 2) (UniProt P29990)
# [1] = Thailand/16681/1984, Concentration 25.0 uM, Number of replicates 1.0
compound,measurement,setting,value
Cc1cc(CO)c2cccc(Cc3ccccc3C(=O)NCc3ncc[nH]3)c2n1,inhibition,"Thailand/16681/1984, Concentration 49.95 uM, Number of replicates 2.0, Standard deviation 0.344234553800121 %",-9.9%
Cc1cc(Br)c(NC(=O)C2CCN(c3ccc(C=O)cc3)CC2)c([N+](=O)[O-])c1,inhibition,[1],13.2%
COc1ccccc1OCCn1cc(C2CCNCC2)c(C)n1,inhibition,"Thailand/16681/1984, Concentration 49.5 uM, Number of replicates 2.0, Standard deviation 0.4008605306484476 %",-1.35%
same,inhibition,"Thailand/16681/1984, Concentration 99.01 uM, Number of replicates 2.0, Standard deviation 0.8515456477601485 %",0.612%
same,inhibition,"Thailand/16681/1984, Concentration 198.0 uM, Number of replicates 2.0, Standard deviation 0.3007587308619815 %",2.21%
CN(C)C(=O)CN1CCN(C(=O)C2CCN(c3ccc(C=O)cc3)CC2)CC1,inhibition,[1],12.6%
COc1ccccc1N1CCN(C(=O)Cc2cccc3c(CO)cc(C)nc23)CC1,inhibition,"Thailand/16681/1984, Concentration 49.95 uM, Number of replicates 2.0, Standard deviation 0.38376020550842554 %",-4.56%
same,inhibition,"Thailand/16681/1984, Concentration 99.9 uM, Number of replicates 2.0, Standard deviation 0.6884685438861432 %",-0.371%
CC(C)Cn1cccc(C(=O)Nc2ccncc2C(F)(F)F)c1=O,inhibition,"Thailand/16681/1984, Concentration 49.5 uM, Number of replicates 2.0, Standard deviation 5.23322293563183 %",-3.89%
same,inhibition,"Thailand/16681/1984, Concentration 99.01 uM, Number of replicates 2.0, Standard deviation 0.16283923825626637 %",-4.73%
same,inhibition,"Thailand/16681/1984, Concentration 198.0 uM, Number of replicates 2.0, Standard deviation 1.971758036933884 %",-6.94%
Cc1cc(CO)c2cccc(Cc3cccc(C(=O)NCc4sccc4C)c3)c2n1,inhibition,"Thailand/16681/1984, Concentration 49.95 uM, Number of replicates 2.0, Standard deviation 0.7466793423372446 %",1.25%
same,inhibition,"Thailand/16681/1984, Concentration 99.9 uM, Number of replicates 2.0, Standard deviation 0.16169689007422708 %",23.8%
Cc1cc(CO)c2cccc(Cc3ccccc3NC(=O)[C@@H]3C[C@@H](O)CN3)c2n1,inhibition,"Thailand/16681/1984, Concentration 49.95 uM, Number of replicates 2.0, Standard deviation 0.8204460631533153 %",8.07%
same,inhibition,"Thailand/16681/1984, Concentration 99.9 uM, Number of replicates 2.0, Standard deviation 0.7809804285572902 %",21.9%
O=Cc1ccc(N2CCC(C(=O)N3CCN(c4cccc(O)c4)CC3)CC2)cc1,inhibition,[1],13.4%
O=Cc1ccc(N2CCC(C(=O)Nc3ccc(Oc4ccc(Cl)cc4)cc3)CC2)cc1,inhibition,[1],3.01%
O=Cc1ccc(N2CCC(C(=O)N3CCN(C4CCCC4)CC3)CC2)cc1,inhibition,[1],15.4%
Cc1cc(CO)c2cccc(Cc3cccc(NC(=O)[C@H](N)CCO)c3)c2n1,inhibition,"Thailand/16681/1984, Concentration 49.95 uM, Number of replicates 2.0, Standard deviation 1.3764108738319158 %",12.9%
same,inhibition,"Thailand/16681/1984, Concentration 99.9 uM, Number of replicates 2.0, Standard deviation 1.1119296213572014 %",13.6%
O=Cc1ccc(N2CCC(C(=O)N3CCc4ccccc4[C@H]3c3ccccc3)CC2)cc1,inhibition,[1],15.9%
CC[C@H](NC(=O)C1CCN(c2ccc(C=O)cc2)CC1)c1cccc(C)n1,inhibition,[1],13.4%
CCn1ccnc(N2CC[C@H](c3ccc(F)cc3)C2)c1=O,inhibition,"Thailand/16681/1984, Concentration 49.5 uM, Number of replicates 2.0, Standard deviation 1.1108054806137186 %",9.05%
same,inhibition,"Thailand/16681/1984, Concentration 99.01 uM, Number of replicates 2.0, Standard deviation 0.4960879631109318 %",17.7%
same,inhibition,"Thailand/16681/1984, Concentration 198.0 uM, Number of replicates 2.0, Standard deviation 0.6975633859845287 %",30.7%
CNC(=O)c1cncnc1NS(=O)(=O)c1ccc(Oc2ccccc2Cl)cc1,inhibition,"Thailand/16681/1984, Concentration 49.5 uM, Number of replicates 2.0, Standard deviation 1.0127526920144583 %",5.46%
same,inhibition,"Thailand/16681/1984, Concentration 99.01 uM, Number of replicates 2.0, Standard deviation 1.3865274661736828 %",5.75%
same,inhibition,"Thailand/16681/1984, Concentration 198.0 uM, Number of replicates 2.0, Standard deviation 1.0625889801550739 %",3.56%
c1ccc2c([C@H]3CCN(CC[C@H]4CCOC4)C3)c[nH]c2c1,inhibition,"Thailand/16681/1984, Concentration 49.5 uM, Number of replicates 2.0, Standard deviation 3.889990756370691 %",-1.18%
same,inhibition,"Thailand/16681/1984, Concentration 99.01 uM, Number of replicates 2.0, Standard deviation 3.7250274012431723 %",-0.886%
same,inhibition,"Thailand/16681/1984, Concentration 198.0 uM, Number of replicates 2.0, Standard deviation 4.094049612470612 %",-0.046%
O=Cc1ccc(N2CCC(C(=O)NCCc3ccc(Cl)c(Cl)c3)CC2)cc1,inhibition,[1],11.5%
NCc1cccc(NC(=O)C2(NC(=O)OCc3ccccc3)CC(F)(F)C2)c1,inhibition,"Thailand/16681/1984, Concentration 49.5 uM, Number of replicates 2.0, Standard deviation 2.2677200349668407 %",-2.94%
same,inhibition,"Thailand/16681/1984, Concentration 99.01 uM, Number of replicates 2.0, Standard deviation 0.8839411333719474 %",-2.06%
same,inhibition,"Thailand/16681/1984, Concentration 198.0 uM, Number of replicates 2.0, Standard deviation 0.8051076448684426 %",-2.25%
Cc1cc(CO)c2cccc(NC(=O)CC3CCNCC3)c2n1,inhibition,"Thailand/16681/1984, Concentration 49.95 uM, Number of replicates 2.0, Standard deviation 2.142909982415651 %",8.3%
same,inhibition,"Thailand/16681/1984, Concentration 99.9 uM, Number of replicates 2.0, Standard deviation 0.2007188026491294 %",53.9%
NCCOc1cccc2c1CCB(O)O2,inhibition,"Thailand/16681/1984, Concentration 49.5 uM, Number of replicates 2.0, Standard deviation 0.44890068869292293 %",-4.07%
same,inhibition,"Thailand/16681/1984, Concentration 99.01 uM, Number of replicates 2.0, Standard deviation 0.9787506376845975 %",-4.53%
same,inhibition,"Thailand/16681/1984, Concentration 198.0 uM, Number of replicates 2.0, Standard deviation 0.44105092245146593 %",-3.47%
CSc1ccc(CNC(=O)C2CCN(c3ccc(C=O)cc3)CC2)cc1,inhibition,[1],3.48%
Cn1ccnc1-c1cc(NC(=O)c2cnn([C@H]3CCCNC3)c2)[nH]n1,inhibition,"Thailand/16681/1984, Concentration 49.5 uM, Number of replicates 2.0, Standard deviation 0.3048681328854907 %",-0.353%
same,inhibition,"Thailand/16681/1984, Concentration 99.01 uM, Number of replicates 2.0, Standard deviation 0.7080640467517072 %",0.421%
same,inhibition,"Thailand/16681/1984, Concentration 198.0 uM, Number of replicates 2.0, Standard deviation 1.3386104401471322 %",0.702%
